# According to paper PMC11024108:
# Target: Endoplasmic reticulum resident protein 29 (UniProt P30040)
# Assay: cross-link between two proteins; cross-linking mass spectrometry
substance,measurement,value
"DNA-directed RNA polymerase, mitochondrial, O00411",listed as a hit,yes
